Screen size: about 220,000 compounds; about 10 (0.005%) were called active. The shares of active, inactive and inconclusive entries below differ from those in the screen. No stated cut-off is given here; in the data, active means maximum fold increase above about 1.5; inconclusive means no clear call, values can overlap the other calls; inactive means below that; tested in PC3 cells.
assay: compounds boosting herpes simplex virus growth – fold increase, host cell viability (AID 1956); conditions: HSV replication augmentation in cells; at 25 µM, active compounds read high unless noted

SMILES	maximum fold increase
COc1ccc(Cl)cc1N1Cc2ccccc2C1	inconclusive
O=C(Nc1ccc(S(=O)(=O)N2CCCC2)cc1)C1COc2ccccc2O1 (stereo not drawn)	inactive
Cc1ccc(S(=O)(=O)NC2(C(F)(F)F)NC(=O)N(CCc3ccccc3)C2=O)cc1 (stereo not drawn)	inconclusive
O=C(c1cc(N2C(=O)C3C4CCC(C4)C3C2=O)ccc1Cl)N1CCN(c2ccccc2F)CC1 (stereo not drawn)	inactive
Cc1ccc(S(=O)(=O)C2(C(=O)NCc3ccc4c(c3)OCO4)CC2)cc1	inactive
Cc1ccc(C(=O)NN2C(=O)/C(=C/c3cn(C)c4ccccc34)SC2=S)cc1	inconclusive
C/C(=C\C(=S)Nc1ccccc1)Nc1ccccc1	inconclusive
COc1ccc(CC(=O)OCC(=O)N2N=C(c3ccccc3)CC2c2ccc(OC)cc2)cc1 (stereo not drawn)	inactive
CCCC[C@H]1C2=C3[C@@H](CC(C(=O)OC)=C[C@@H](C(=O)OC)[C@H]3C(C)(C)C2=O)n2c(=O)n(-c3ccccc3)c(=O)n21	inactive
Cc1ccc(NCc2nnc(SCC(=O)O)n2Cc2ccccc2)cc1Cl	inconclusive
CC(C)Cn1c(SCC(=O)Nc2cccc(S(N)(=O)=O)c2)nc2ccccc2c1=O	inactive
CC(C)OC(=O)CC(=O)CSc1nc(-c2ccc(F)cc2)cc(-c2ccccc2)c1C#N	inconclusive
COc1cc(/C=C(\C#N)c2nc3ccccc3[nH]2)cc(Br)c1OCc1ccc(F)cc1	inconclusive
CCN(C(=O)c1cn(C)c(=O)c2cc(OC)c(OC)cc12)c1cc(C)ccc1C	inactive
Cc1cc(C)c[n+](-c2nc3ccccc3nc2[N-]S(=O)(=O)c2ccc(Cl)cc2)c1	inconclusive
O=C(COc1ccccc1-c1ccccc1)NCc1cccc(Cl)c1	inconclusive
CCOc1ccccc1C1CC(c2cccs2)=NN1S(C)(=O)=O (stereo not drawn)	inconclusive
Cc1ccc(OCC(=O)Nc2cnn(CCCC(=O)O)c2)c([N+](=O)[O-])c1	inactive
CN(C)S(=O)(=O)c1ccc(NS(=O)(=O)/C=C/c2ccccc2)cc1	inactive
COC(=O)c1c(C)[nH]c(C)c1-c1ccc(C)cc1	inactive
N#C/C(=C\c1ccc(F)cc1)c1nc(-c2ccco2)cs1	inconclusive
CCOC(=O)/C(=C\C=C1/Sc2ccccc2N1CC)C(C)=O	inconclusive
CC1CC(C)CN(C(=O)c2cccc3c2-c2ccccc2C3=O)C1 (stereo not drawn)	inactive
CCCN1C(=O)/C(=C\C=C2/Sc3ccccc3N2CCO)SC1=S	inconclusive
c1ccc(C[n+]2c(-c3ccccc3)csc2Nc2ccccc2)cc1	inconclusive

SMILES	maximum fold increase
COC(=O)c1c(C)[nH]c(C(C)=O)c1C	inactive
COc1ccc(C2CC(c3ccccc3)=NN2c2ccc(/C=N/NC(=O)c3ccncc3)cc2)cc1 (stereo not drawn)	inconclusive
CC(=O)/C(C#N)=C1\NC(=O)C(Cc2ccccc2)S1 (stereo not drawn)	inconclusive
CCc1ccccc1NC(=O)N[C@H](C(=O)O)C(C)C	inactive
COc1ccc(-n2c(C)cc(/C=C3\SC(=S)N(Cc4ccco4)C3=O)c2C)cc1	inconclusive
O=C(Nc1ccc(N2CCCCC2)cc1)c1cccnc1Cl	inactive
COc1ccc(O)c(C(=O)c2cc(C#N)c(=O)n(-c3ccc(Cl)cc3)c2)c1	inconclusive
CN(C)c1ccc(/C=C(\C#N)C(=O)Nc2nc3c(s2)CCN(Cc2ccccc2)C3)cc1	inconclusive
CCCCCCn1cnc2c(c1=O)c1nc3ccccc3nc1n2Cc1cccs1	inconclusive
CC(C)(C)C(=O)N=C1SC2CS(=O)(=O)CC2N1c1ccc2c(c1)OCO2 (stereo not drawn)	inconclusive
O=C1NCC(c2ccccc2)C1C(=O)N/N=C\c1ccc(-c2ccc(Cl)c(Cl)c2)o1 (stereo not drawn)	inconclusive
Cc1cc(C)cc(-n2c(N)c(C(=O)Nc3c(C)n(C)n(-c4ccccc4)c3=O)c3nc4ccccc4nc32)c1	inconclusive
C#C[C@]1(O)CC[C@H]2[C@@H]3[C@H](C)CC4=C(CCC(=O)C4)[C@H]3CC[C@@]21C	inactive
Cc1ccc(N2C(=O)C3C(C(=O)c4ccccc4)=NN(c4ccccc4)C3C2=O)cc1 (stereo not drawn)	inconclusive
COC(=O)c1ccc(OCC(=O)c2ccc(O)cc2O)cc1	inactive
COc1cccc(NC(=O)NC(C)C2CC3CCC2C3)c1 (stereo not drawn)	inactive
Cc1cccc(S(=O)(=O)Nc2cccc3c2C(=O)c2ccccc2-3)c1	active: 4.08
Cc1ccc2[nH]c3c(c2c1)CN(C(=O)CN1CC(C)OC(C)C1)CC3 (stereo not drawn)	inconclusive
Nc1cccn2c(-c3ccc(Cl)c(Cl)c3)cnc12	inconclusive
CCOc1cc(/C=N/NC(=O)Cn2nc([N+](=O)[O-])cc2C)ccc1OCc1ccc(F)cc1	inconclusive
c1cncc(-c2nc3ccccc3o2)c1	inconclusive
COc1ccc(-c2nn(C)c(=O)c3ccccc23)cc1CNS(C)(=O)=O	inactive
COc1cccc(NC(=O)CSc2nnc(-c3ccoc3C)n2-c2ccccc2)c1	inconclusive
CCCOC(=O)CSC1=C(C#N)C(c2ccccc2OCC)C(C#N)C(=O)N1 (stereo not drawn)	inconclusive
O=C1/C(=C/c2ccco2)Oc2c1ccc(O)c2CN1CCCCC1	inconclusive

SMILES	maximum fold increase
CC(NC(=O)Nc1ccccn1)N1C(=O)C2C3C=CC(C3)C2C1=O (stereo not drawn)	inactive
COC(=O)c1ccccc1COn1c(=O)c[n+]([O-])c2ccccc21	inconclusive
N=C1C(c2ccccc2)=C(O)CN1c1ccccc1N1CCOCC1	inactive
CCN(CC(=O)NCc1cccs1)S(=O)(=O)c1cccc(C(C)=O)c1	inactive
CN1CCc2c(sc3c2C(=O)NC(c2ccccc2)N3)C1 (stereo not drawn)	inconclusive
CCOC(=O)/C=C1\SCC(=O)N1CC(=O)Nc1ccc(OC)c(OC)c1	inconclusive
CCc1c(O)nc(SCC(=O)N(CC)CC)[nH]c1=O	inactive
Cn1c2ccccc2c(=O)c2c(=O)n(Cc3ccco3)c(COc3ccccc3)nc21	inconclusive
CC(=O)NC1=NC(=O)/C(=C/c2cc(C)n(-c3cccc(C(=O)O)c3)c2C)S1	inconclusive
CC(=O)c1ccc(-c2ccc(/C=C(/Sc3n[nH]c(C)n3)C(=O)O)o2)cc1	inconclusive
O=C(CSc1nc2c(c(C(F)(F)F)n1)CCc1ccccc1-2)NCc1ccccc1	inconclusive
COc1ccc(NC(=O)c2ccc(-n3nc(C)cc3C)cc2)cc1OC	inactive
COc1ccc2[nH]c3c(=O)n(Cc4ccco4)cnc3c2c1	inconclusive
O=C(/C=C/c1cccc([N+](=O)[O-])c1)Nc1cccc(NC(=O)c2cccs2)c1	inactive
N/N=C(\Cc1cscn1)c1ccc(O)cc1O	inconclusive
Cc1ccccc1N=Cc1cc2c(cc1O)OC(N)=C(C#N)C2c1ccccc1 (stereo not drawn)	inconclusive
CCN(CC)c1ccc(/C=N/NC(=O)c2cccc(S(=O)(=O)N3CCOCC3)c2)c(O)c1	inconclusive
Nc1c(S(=O)(=O)c2ccccc2)c2nc3ccccc3nc2n1/N=C/c1ccco1	inconclusive
CN(C)S(=O)(=O)c1ccc(NC(=O)N2CCN(c3cccc(C(F)(F)F)c3)CC2)cc1	inactive
O=C(CSc1nnc(CNc2cccc(C(F)(F)F)c2)n1Cc1ccco1)NCc1ccco1	inactive
CN1Cc2sc(N)c(C#N)c2CC1(C)C	inconclusive
CC(=O)c1cc(O)c2ccccc2c1O	inconclusive
CC1=CC(C)(C)Nc2ccc(OC(=O)CCN3C(=O)c4ccccc4C3=O)cc21	inactive
Cc1nn2c(c1-c1ccccc1)N=C(c1ccco1)CC2c1ccccc1 (stereo not drawn)	inconclusive
N#CC1(C#N)C2=C(CCCC2)NC(c2ccccc2)C1(C#N)C#N (stereo not drawn)	inconclusive

SMILES	maximum fold increase
CCOC(=O)c1sc(NC(=O)c2ccc(CC)s2)nc1C	inactive
O=C(NC(=S)NCc1nc2ccccc2[nH]1)c1ccc(F)cc1	inactive
C=CCN(C(=O)CSC1=NC(=O)CN1C(C)=O)c1nc(C)c(-c2ccccc2)s1	inactive
Oc1sc(C=Nc2ccccc2)c2ccccc12	inconclusive
O=C1/C(=C\c2ccco2)NC(=S)N1c1ccccc1	inconclusive
O=C(O)c1ccc(N2CC3CC(C2)c2cccc(=O)n2C3)c(NS(=O)(=O)c2cccc(C(F)(F)F)c2)c1 (stereo not drawn)	inactive
CCN(CC)c1ccc(C(=O)OCc2cc(=O)oc3cc(O)ccc23)cc1	inconclusive
Cc1cc(C)c(S(=O)(=O)N(C)CC(N)=O)c(C)c1	inactive
O=C(COC(=O)c1cc(-c2cccs2)nn1-c1ccccc1)Nc1ccc(F)c([N+](=O)[O-])c1	inactive
CC(C)N1CCc2c(sc(NC(=S)NC(=O)c3ccccc3)c2C#N)C1	inconclusive
CC(=O)Cc1cc(O)c2ccccc2c1OC(=O)c1ccc(Br)cc1	inconclusive
CC(C)CC(=O)Nc1ccc(N2CCOCC2)cc1	inactive
O=[N+]([O-])c1cc(-c2nnc(Nc3ccccc3)c3ccccc23)ccc1N1CCOCC1	inactive
O=C(Cn1c(-c2ccccn2)nc2ccccc21)N/N=C/c1cccnc1	inactive
COc1ccccc1N1CCN(C(=O)c2ccc3c(Cl)c4c(nc3c2)CCCC4)CC1	inconclusive
COc1ccc(CNC(=O)/C(C#N)=C2\N=C(NC(=O)c3cccs3)c3ccccc32)cc1	inconclusive
CCOc1ccc(N2C(=O)C3Sc4[nH]c(=O)sc4C(/C=C/c4ccccc4)C3C2=O)cc1 (stereo not drawn)	inconclusive
Cc1ccc(-c2nnc(-c3ccc4c(c3)OCO4)o2)cc1	inactive
O=c1[nH]c2ccc(Cl)cc2c(-c2ccccc2)c1SC(=S)N1CCCCC1	inconclusive
Cn1cccc1/C=C1\CCC/C(=C\c2cccn2C)C1=O	inconclusive
CN1CCN(S(=O)(=O)c2ccc(Oc3ccc(F)c(Cl)c3)nc2)CC1	inactive
O=c1c[n+]([O-])c2ccccc2n1OCc1c(F)cccc1F	inconclusive
CNCCCNCc1ccc(SC)cc1	inconclusive
